Out of some 410,000 compounds screened, about 7,200 (1.8%) were called active. This list was built around the results that the source calls inconclusive (neither active nor inactive); the mix of calls is not that of the screen. Calls come from the whole dose curve; as a rule, active = well fitted activation curve with a large enough effect; inconclusive = small, poorly fitted or top-dose-only effect, or another doubt; inactive = no such curve, though single readings can be large or run the other way. No potency is given beside an inconclusive call; the fits are too rough.
Assay: qHTS of TDP-43 Inhibitors; note: nearly all actives have a fitted effect of over 50% in size
Details: TDP-43 expressing yeast growth rescue, BacTiter-Glo, 24 h; series mostly up to 46.1 µM
Procedure, shortened: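 Readout is BacTiter-Glo luminescence of cell growth, so inhibitors register as activators. TDP-43-expressing yeast at OD600=0.02 in galactose medium, after raffinose pregrowth to mid-log, were incubated with compound for 24 hr at 30 deg C.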
Potency is the fitted concentration of half-maximal effect; tags give direction and shape of the fitted curve.

Row | SMILES | Potency
1 | Oc1ccc(/C=N/Nc2ccc3ccccc3c2)c(O)c1 | inconclusive [activator, single point]
2 | Cc1ccc(NC(=O)c2ccc(S(=O)(=O)N3CCC(C)CC3)cc2)cc1 | inconclusive [activator, full curve, poor fit]
3 | CCc1nnc(NC(=O)c2ccc3ccccc3n2)s1 | active: 31.6 µM
4 | O=C(Oc1ccccc1C(=S)N1CCOCC1)c1ccc([N+](=O)[O-])cc1[N+](=O)[O-] | inactive
5 | CCOc1ccc(NC(=O)C2CCCN(c3cnccn3)C2)cc1 (stereo unspecified) | inactive
6 | Cc1ccc(C2CC2C(=O)NNC(=S)Nc2cccc(C)c2)cc1 (stereo unspecified) | inconclusive [activator, single point]
7 | Cc1noc(COc2ccccc2OCc2onc(C)c2Cl)c1Cl | inconclusive [activator, single point]
8 | O=C(Oc1c(Cl)cc(Cl)c2cccnc12)c1ccco1 | inconclusive [activator, full curve, poor fit]
9 | Cc1noc(N)c1C(=O)Nc1ccc(C(C)(C)C)cc1 | inconclusive [activator, single point]
10 | O=C(Nc1nnc(C2=COCCO2)o1)c1cccc(Br)c1 | inconclusive [activator, single point]
11 | O=C(CN1C(=O)NC2(CCCCCC2)C1=O)Nc1ccc([N+](=O)[O-])cc1 | inconclusive [activator, partial curve]
12 | O=C(CS(=O)CC(=O)Nc1ccc(Cl)cc1)NCC1OCCc2ccccc21 (stereo unspecified) | inactive
13 | Fc1ccc(NC(=S)Nc2nccs2)cc1 | active: 22.4 µM
14 | COc1ccc([N+](=O)[O-])cc1C(=O)NCCOc1ccc(Cl)cc1 | inconclusive [activator, partial curve]
15 | CCOC(=O)c1cc(CC)sc1/N=C/C1C(=O)CC(C)(C)CC1=O | inconclusive [activator, partial curve]
16 | Cc1ccc(F)cc1NC(=O)c1ccc(OCC2CCCO2)cc1 (stereo unspecified) | inconclusive [activator, partial curve]
17 | CC1(C)CC(=O)c2cc(C(=O)NC3CCSC3=O)c(=O)n(-c3ccccc3)c2C1 (stereo unspecified) | inactive
18 | CCOc1ccc(NS(=O)(=O)c2ccc(NC(=S)NC(=O)CC(C)C)cc2)cc1 | inconclusive [activator, single point]
19 | O=C(NCc1ccccc1Cl)C1CCN(C(=O)N2CCOc3ccccc32)CC1 | inconclusive [activator, partial curve]
20 | COc1ccc(CC(=O)NC(=S)Nc2cccc(C)c2)cc1 | inactive
21 | Cc1ccc(C(=O)NCc2ccco2)c(C)c1 | inconclusive [activator, partial curve]
22 | CCCCn1nnnc1C(c1ccccc1)N1CCN(c2ncccc2C(F)(F)F)CC1 (stereo unspecified) | inconclusive [activator, partial curve]
23 | CCCCN(C)c1c(C)nc2ccc(C(=O)NCc3ccc(OC)cc3)cn12 | inactive

Row | SMILES | Potency
24 | CCOC(=O)C1=CCN(S(=O)(=O)c2ccc(C)cc2)C1c1cccc2ccccc12 (stereo unspecified) | inconclusive [activator, partial curve]
25 | Cc1ccccc1Nc1c(N)c(=O)oc2ccccc12 | inconclusive [activator, single point]
26 | Cn1nc(/C=C/c2ccccc2)ccc1=O | inactive
27 | COc1ccc(-c2nc3sc(CCNC(=O)Cc4ccc(F)cc4)c(C)n3n2)cc1 | inconclusive [activator, single point]
28 | CC1CCN(c2nc(-c3ccncc3)nc3ccccc23)CC1 | active: 12.6 µM
29 | Cn1cccc1C(=O)OCC(=O)Nc1cc(C(C)(C)C)nn1-c1ccccc1 | active: 35.5 µM
30 | CCc1ccc(CN(C)C(=O)c2cc(COc3cccc4cnccc34)on2)cc1 | inconclusive [activator, single point]
31 | Cc1cc(C)cc(NC(=O)c2ccc3oc(=O)c(S(=O)(=O)c4ccc(F)cc4)cc3c2)c1 | inactive
32 | CCc1noc(C)c1C(=O)Nc1ccccc1N1CCOCC1 | inconclusive [activator, partial curve]
33 | CC(C)c1ccc(-c2noc(SCC(=O)N3CCCCC3C)n2)cc1 (stereo unspecified) | inconclusive [activator, partial curve]
34 | Cc1cccc2sc(NNC(=O)c3cc(-c4cccs4)nc4ccccc34)nc12 | inconclusive [activator, partial curve]
35 | Cc1cc(=O)n(Cc2ccc(F)cc2Cl)c2c1c(C)nn2C | inconclusive [activator, full curve, poor fit]
36 | Cc1cccc(-c2nc(CCNC(=O)c3ccc(Br)o3)cs2)c1 | active: 15.8 µM
37 | COc1ccccc1Cc1c(-c2ccc(Cl)cc2)nc2c3ccccc3ccn12 | inconclusive [activator, single point]
38 | N#C/C(=C\c1ccc(O)c(O)c1)C(=O)N1CCc2ccccc21 | inconclusive [activator, full curve, poor fit]
39 | Cc1ccc(Cn2c(C3CCCN3c3nc(-c4ccc(F)cc4)cs3)nc3cc(C(F)(F)F)ccc32)cc1 (stereo unspecified) | inconclusive [activator, full curve, poor fit]
40 | Nc1nc(COC(=O)c2ccco2)nc(Nc2ccccc2)n1 | inconclusive [activator, partial curve]
41 | COc1ccc(S(=O)(=O)N2CCN(C(=O)CNC(=O)c3ccc4c(c3)OCO4)CC2)cc1 | inactive
42 | NC(=O)c1c(-c2cccs2)csc1N | inconclusive [activator, full curve]
43 | COC(=O)c1ccc(Sc2ccc(Cl)cc2)c(N)c1 | inactive
44 | Nc1nc(-c2ccccc2)cc(-c2ccccc2)n1 | inconclusive [activator, partial curve]
45 | Cc1nnc(SCC(=O)N2CCN(c3ccccc3)CC2)n1C1CC1 | inactive
46 | Cc1ccc(C(=O)Nc2ccccc2Sc2ccccc2)cc1 | inactive

Source: PubChem BioAssay AID652104 (National Center for Advancing Translational Sciences (NCATS), 2013)
